The text below walks through data of the supplement of paper PMC4723716.

In this test the test system is Plasmodium falciparum NF54 stage V gametocytes. In words: viability index relative to DMSO control (fraction); higher = less gametocyte killing. The following applies: 2.5 µM, library set: Broad Institute DOS, incubation time: 72 h. As for the experimental part:
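Broad DOS informer set and blood-stage-active DOS compounds screened in duplicate at 2.5 µM against P. falciparum NF54 stage V gametocytes with the serum-free one-step SaLSSA (1536-well): 72 h at 37 °C under low oxygen, then saponin lysis and MitoTracker Red CMXRos staining, with high-content imaging. Viability index = viable-object count divided by the plate mean of DMSO wells (0 = killed, about 1 = inactive).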

SMILES strings stand for the structures. ± gives the uncertainty stated by the source. Over roughly 9,900 compounds, “viability index relative to DMSO control” has its median near 1; the lowest 2% begin near 0.85. Some of the results follow.

Molecule `CN1C(=O)c2cc(NC(=O)c3cnccn3)ccc2OC[C@H]2O[C@H](CC(=O)NCC3CCCCC3)CC[C@H]21` came in with a viability index of 1.1 ± 0.064. The result for `O=C(NC1CCCCC1)N1CC2(C1)[C@@H](c1ccccc1)[C@@H](CO)N2CC1CCCC1` reads 0.987 ± 0.041; that for `CN(C)CC(=O)N1[C@H](CO)[C@@H](c2ccccc2)C12CN(CCC(F)(F)F)C2`, 1.05 ± 0.058; that for `O=C(C[C@@H]1CC[C@@H]2NC[C@H](O)COC[C@H]2O1)NCCc1ccncc1`, 0.976 ± 0.038.

`C/C=C/c1ccc([C@H]2[C@H]3CN(CCC(F)(F)F)CCCCN3[C@H]2CO)cc1` came in with a viability index of 1.041 ± 0.0046.

As for `COc1cccc(NC(=O)C[C@@H]2CC[C@H]3[C@@H](COc4ccc(NC(=O)C5CC5)cc4C(=O)N3C)O2)c1`, the viability index came out at 1.09 ± 0.035.

As for `CO[C@@H](CN(C)CC1CCOCC1)[C@H](C)CN(C(=O)Nc1ccc(F)cc1)[C@@H](C)CO`, the viability index worked out at 0.988 ± 0.043.

Molecule `O=C(c1ccncc1)N1C[C@@H]2[C@H](c3ccccc31)[C@@H](CO)N2Cc1ccccc1F` registered a viability index of 1.08 ± 0.043. Take `O=C(C[C@H]1CC[C@H]2[C@@H](COC[C@H](O)CN2C(=O)c2ccncc2)O1)Nc1ccc(-c2ccccc2)cc1`: the viability index was 1.1 ± 0.041.

The molecule `CNC[C@@H]1Oc2ncc(-c3cncnc3)cc2C(=O)N([C@H](C)CO)C[C@@H]1C` came in with a viability index of 0.952 ± 0.034.

In turn, `CN(C)c1ccc2c(c1)[C@@H]1C[C@@H](CC(=O)N3CCOCC3)O[C@@H](CO)[C@@H]1O2` returned a viability index of 1.08 ± 0.054. Molecule `Cc1ccc(S(=O)(=O)N(C)C[C@H]2OCCCC[C@H](C)Oc3ccc(NC(=O)c4ccncc4)cc3C(=O)N([C@H](C)CO)C[C@H]2C)cc1` displayed a viability index of 1.03 ± 0.022. Molecule `CO[C@H]1CN(C)C(=O)c2ccc(NC(=O)Nc3c(C)noc3C)cc2OC[C@@H](C)N(CCC(F)(F)F)C[C@@H]1C` returned a viability index of 0.963 ± 0.045.

The molecule `CNC[C@H]1OCc2cn(nn2)CCCC(=O)N([C@@H](C)CO)C[C@H]1C` came in with a viability index of 0.985 ± 0.051. `N#C[C@@H]1[C@H](c2ccccc2C2=CCCCC2)[C@H](CO)N1C(=O)c1ccccn1` gave a viability index of 0.958 ± 0.064. Molecule `CCS(=O)(=O)N1C[C@@]2(C1)CN([C@H](CO)c1[nH]c3cc(OC)ccc3c21)C(=O)Nc1c(C)noc1C` gave a viability index of 0.971 ± 0.15. For the molecule `CCN(C[C@@H]1[C@H](c2ccccc2)[C@@H](CO)N1C(=O)COC)S(C)(=O)=O`, the viability index was 0.995 ± 0.045. `O=S(=O)(c1ccccc1)N1[C@H](CO)[C@H]2c3ccccc3NC[C@H]21` registered a viability index of 1.05 ± 0.018. Molecule `C[C@@H]1CCCCO[C@@H](CN(C)C(=O)Nc2ccc3c(c2)OCO3)[C@@H](C)CN([C@H](C)CO)C(=O)c2cc(NS(=O)(=O)c3ccc(F)cc3)ccc2O1` gave a viability index of 1.13 ± 0.1. The molecule `Cc1ccccc1-c1ccc([C@@H]2[C@@H](CO)N3C(=O)CN(S(C)(=O)=O)C[C@@H]23)cc1` came in with a viability index of 1.05 ± 0.11. `COC(=O)C[C@H]1C[C@H]2c3cc(NC(=O)C4CCOCC4)ccc3O[C@H]2[C@@H](CO)O1` showed a viability index of 0.956 ± 0.029. To `CCNC(=O)C[C@@H]1CC[C@H]2[C@@H](COC[C@H](O)CN2C(=O)c2ccccn2)O1` belongs 1.14 ± 0.062; to `CCCC#Cc1ccc([C@H]2[C@H]3CN(S(=O)(=O)c4ccccc4C)CC(=O)N3[C@H]2CO)cc1`, 1.07 ± 0.05. As to `COc1cccc(S(=O)(=O)Nc2ccc3c(c2)C(=O)N(C)[C@H]2CC[C@@H](CC(=O)NCC4CCCCC4)O[C@@H]2CO3)c1`, the viability index is 0.958 ± 0.0087.

Molecule `CN1c2ccc(Br)cc2[C@@H]2[C@@H](CCN2C(=O)C2CCC2)[C@H]1CO` came in with a viability index of 1.04 ± 0.015.

`C[C@@H]1CN([C@H](C)CO)C(=O)c2cccc(NC(=O)Nc3ccc(F)cc3)c2O[C@@H]1CN(C)S(=O)(=O)c1ccc(Cl)cc1` registered a viability index of 0.855 ± 0.061.

On to `O=C(C[C@H]1CC[C@@H]2NC[C@@H](O)COC[C@H]2O1)N1CCc2ccccc2C1`, for which the viability index was 1.02 ± 0.043.

`Cc1ccc(S(=O)(=O)NCC[C@@H]2CC[C@H](NC(=O)c3cccnc3)[C@@H](CO)O2)cc1`: the viability index was 1.14 ± 0.069.

Regarding `CO[C@H]1CN(C)C(=O)c2cc(NS(=O)(=O)c3cn(C)cn3)ccc2OC[C@@H](C)NC[C@H]1C`, the viability index worked out at 1 ± 0.012. Take `C[C@H](CO)N1C[C@H](C)[C@H](CN(C)Cc2ccc(Oc3ccccc3)cc2)Oc2c(NS(=O)(=O)c3cn(C)cn3)cccc2C1=O`: the viability index is 0.958 ± 0.045.

The molecule `C[C@H](CO)N1C[C@H](C)[C@@H](CN(C)C(=O)CCC(F)(F)F)OCc2ccccc2-c2ccccc2C1=O` came in with a viability index of 0.955 ± 0.031. In the case of `CCC(=O)N1CC(=O)N2[C@H](C1)[C@@H](c1ccc(-c3ccc(C#N)cc3)cc1)[C@@H]2CO`, the viability index amounted to 1.05 ± 0.13. The result for `OC[C@@H]1[C@H](c2ccc(-c3cccnc3)cc2)[C@H]2CN(Cc3ccccn3)CCCCN12` reads 0.979 ± 0.024; that for `C[C@H]1CN([C@@H](C)CO)C(=O)c2cccc(NC(=O)c3ccc(-c4nccs4)cc3)c2O[C@H]1CN(C)C(=O)Nc1ccc(C(F)(F)F)cc1`, 0.997 ± 0.16; that for `CCCNC(=O)c1cc2c(c(-c3cccc(-c4ccc(F)cc4)c3)n1)[C@@H](CCO)N([S@](=O)C(C)(C)C)C2`, 1.061 ± 0.0038.
